Whole data set: some 33,000 sequences, median “E-score (-0.5 to 0.5)” near -0.032, cut for the highest 2% near 0.36. This is one part of the list.
Each sequence was assayed against T1, Sko1 (UniProt Q02100) (assay: PBM E-score (8-mer binding enrichment) (E-score (-0.5 to 0.5)); higher = stronger / more preferred TF binding; most listed sequences are background and not binding sites). Settings: protein concentration: 200 nM; construct: GST-full length.
T1 sequence: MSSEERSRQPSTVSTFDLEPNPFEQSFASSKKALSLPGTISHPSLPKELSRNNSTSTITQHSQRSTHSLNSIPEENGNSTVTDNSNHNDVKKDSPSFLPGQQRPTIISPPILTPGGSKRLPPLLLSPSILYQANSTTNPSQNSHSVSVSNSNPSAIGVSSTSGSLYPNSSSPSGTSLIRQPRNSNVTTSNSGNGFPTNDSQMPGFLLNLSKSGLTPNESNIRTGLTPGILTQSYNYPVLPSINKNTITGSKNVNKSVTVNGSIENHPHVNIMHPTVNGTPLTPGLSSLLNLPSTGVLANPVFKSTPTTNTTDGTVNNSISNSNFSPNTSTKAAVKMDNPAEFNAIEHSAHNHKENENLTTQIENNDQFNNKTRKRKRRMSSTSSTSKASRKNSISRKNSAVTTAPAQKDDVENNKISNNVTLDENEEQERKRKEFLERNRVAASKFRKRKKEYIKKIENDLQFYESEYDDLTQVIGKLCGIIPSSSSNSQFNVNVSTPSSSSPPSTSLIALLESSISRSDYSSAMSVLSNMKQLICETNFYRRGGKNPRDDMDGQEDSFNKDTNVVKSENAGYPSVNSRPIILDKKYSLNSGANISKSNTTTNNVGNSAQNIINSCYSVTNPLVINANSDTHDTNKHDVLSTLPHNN
Procedure, shortened: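 Using PURExpress in vitro transcription/translation, GST-tagged yeast transcription factors were made in full-length or DNA-binding-domain form. These were applied at about 100-200 nM to double-stranded universal all-10-mer Agilent arrays, and bound protein was detected with fluorescent anti-GST. Scans were normalised with masliner before the Universal PBM Analysis Suite assigned E-scores to ungapped eight-base words pooled with their reverse complements.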

| Sequence | PBM E-score |
| --- | --- |
| GCCGCCTA | -0.267 |
| AAGCTAAT | 0.256 |
| CGTGGGGC | 0.0267 |
| AGTTATCG | 0.0984 |
| CTGTGTAC | 0.00812 |
| ACCAACAT | 0.0437 |
| CCAGCGAA | -0.213 |
| CAGATCCA | -0.0128 |
| CAGGTGAA | 0.0408 |
| CCAAAACC | -0.0066 |
| GTCAACAA | 0.105 |
| AGCCAGCC | -0.251 |
| ACTGTCTG | -0.235 |
| AAATAGTA | 0.074 |
| AGTGTGCC | -0.215 |
| CGGGGGTA | -0.254 |
| CCCGAAAA | -0.0615 |
| AGGCTAAT | -0.0343 |
| CACGCTTA | 0.116 |
| AATGCTGT | 0.0229 |
| GCCTGCCA | -0.265 |
| CATGTACC | 0.0624 |
| ACTGTAAA | 0.121 |
| AAACCAAA | 0.103 |
| CATAAGAC | 0.1 |

| Sequence | PBM E-score |
| --- | --- |
| ATGGGTAG | -0.112 |
| TGACCGAA | 0.0365 |
| ACCCGGAG | -0.156 |
| GAGGATTA | -0.0759 |
| GCCGACAC | -0.307 |
| CTTCGATA | 0.118 |
| GAACTTGC | -0.0435 |
| GGCAGTAA | -0.112 |
| GCAGCACA | -0.137 |
| ATCGACTC | -0.165 |
| AGTCATCA | -0.103 |
| AGCCCAAC | -0.106 |
| CGTCGCAG | 0.149 |
| ACGTAACC | 0.469 |
| GGATGGTA | 0.0148 |
| GGACATTA | 0.111 |
| CAATGATG | 0.381 |
| CCCGGTGA | -0.22 |
| ACTGACCG | -0.186 |
| CATCTTGA | -0.0578 |
| GGAGATAC | -0.0954 |
| CTTCCCGA | -0.108 |
| CGTGACAA | 0.188 |
| GGGACGAA | -0.164 |
| CAGGGCGA | -0.0698 |

| Sequence | PBM E-score |
| --- | --- |
| ATCTTGAG | 0.0289 |
| AACGCATT | 0.209 |
| CCCCTCCC | -0.251 |
| AATCAAGA | 0.111 |
| TAAAAGTA | 0.0452 |
| ATGGCCCA | 0.019 |
| GATTTCAA | -0.111 |
| TGATAAAA | 0.223 |
| ATGATTAG | 0.15 |
| ATAGGACG | 0.131 |
| GGCTACCA | -0.199 |
| AGCCACCT | -0.098 |
| CGTTACGA | 0.349 |
| GCCGTGAC | 0.143 |
| GCATGCGA | 0.0969 |
| GGTTCTGA | 0.0529 |
| CGGAGCAA | -0.229 |
| CTCTTACA | -0.0812 |
| CGGATCTA | -0.111 |
| ATGTAAAC | 0.257 |
| ACACGCCA | 0.166 |
| ACTCCCGC | -0.186 |
| GTTCGCCA | -0.0644 |
| AAAGGACT | -0.062 |
| GCCCGCAA | -0.228 |

| Sequence | PBM E-score |
| --- | --- |
| CATCAAAA | 0.162 |
| AAACTAAG | 0.24 |
| ACAGATAT | 0.096 |
| ACGTTTCG | 0.347 |
| ATCATCAT | 0.332 |
| GAATAGGA | -0.0437 |
| ACTAAAAC | 0.1 |
| TACGAAAA | 0.336 |
| AGCTGTCC | -0.254 |
| GGGTGTCA | 0.0495 |
| AGAGTTTG | -0.0379 |
| TACGCCTA | 0.208 |
| CGTCACCA | 0.447 |
| AAACCTGC | -0.203 |
| CCCCGACC | -0.243 |
| CGGCAACA | -0.016 |
| AATAATGC | 0.176 |
| TAGAGCGA | -0.114 |
| ACTTAAGC | 0.032 |
| CGGGACGA | -0.144 |
| AAAAAGAG | -0.0307 |
| AGACCGAG | -0.338 |
| GCGAATAA | 0.13 |
| AAGTCCAG | -0.279 |
| CCAGGGCC | -0.394 |

| Sequence | PBM E-score |
| --- | --- |
| GGAATGGA | -0.0692 |
| ACGATAAG | -0.0804 |
| AATTCTAC | 0.151 |
| GCTTGCAA | -0.00376 |
| TAATCTCA | 0.15 |
| ACGGGCTA | -0.0788 |
| CTTCTGAA | -0.0853 |
| CCGCGACG | 0.00844 |
| ACATGGCG | 0.0993 |
| AAGTTAAA | 0.211 |
| ATAGGTAG | 0.0253 |
| CGGCATTC | -0.119 |
| GGACAAAA | -0.0188 |
| GGGGTATA | -0.317 |
| ATGCACCC | -0.122 |
| ACATGGAC | -0.0373 |
| AGCCCACA | -0.186 |
| CACTCGAC | -0.243 |
| CTGGGAAG | -0.183 |
| AAAGGGCC | -0.208 |
| CTGAGAAC | -0.02 |
| CAAATGTC | -0.0195 |
| TCATTTCA | 0.181 |
| ATTGGCGC | 0.0319 |
| AACCGCAA | 0.0628 |

| Sequence | PBM E-score |
| --- | --- |
| CCAAAGCC | -0.186 |
| ACACAGTC | -0.193 |
| CCGTCTAG | -0.23 |
| GTCTCTAA | 0.106 |
| ACTACATA | 0.198 |
| CTGATGCC | -0.122 |
| CTTTCTCC | -0.317 |
| CTAATCAC | 0.196 |
| AAGGACTG | -0.237 |
| GCCCTAAC | -0.0018 |
| GTTCCCGA | -0.0955 |
| CTCATGGC | -0.0953 |
| TAGCTATA | 0.00695 |
| ACGTGCGA | 0.301 |
| CTCACCAA | 0.00581 |
| ATGGAATC | 0.232 |
| CAGCACCC | -0.188 |
| GCTGGCAC | -0.114 |
| ATCAAGAG | 0.0204 |
| ATTTGTCC | 0.206 |
| ATTGGACC | -0.27 |
| ATGAATGG | -0.0491 |
| AGGCTCAA | -0.14 |
| CGCAATTC | 0.145 |
| ACGCGTAA | 0.382 |

| Sequence | PBM E-score |
| --- | --- |
| CAAAGCGC | -0.0192 |
| ACCCGGAT | -0.263 |
| CGGACCAG | -0.133 |
| ACACGGCG | -0.0435 |
| ACCACAGG | -0.272 |
| ATCCCGCC | -0.341 |
| ATCTCACG | 0.126 |
| ATCCTTAG | -0.146 |
| GGCTATAA | -0.0469 |
| AGATAGAT | -0.095 |
| GCAACAGA | -0.029 |
| AACCTCAT | 0.167 |
| GTATACGA | 0.194 |
| AATGAACA | 0.14 |
| TTAAACAA | 0.00421 |
| CATCCGGG | -0.148 |
| CAAAAGGC | -0.222 |
| GGCACGCC | -0.268 |
| CATTTTCC | 0.122 |
| CATTGATC | 0.0657 |
| ATGTATAC | 0.247 |
| CGGGCCTA | -0.287 |
